Reference: article PMC4336329 (PLoS ONE, 2015)
Among all 310,000 compounds or so, about 14,000 (4.5%) showed an effect of 50% or more. The effect is printed as a negative number. The list shows a part of the results.

molecular target: human ether-à-go-go-related gene (hERG) potassium channel (human, UniProt Q12809); assay: primary screen, population patch clamp on CHO cells stably expressing hERG
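Also: peak tail current of the secondary pulse compared with the same well before compound.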

human ether-à-go-go-related gene (hERG) potassium channel, sequence (Q12809 whole entry, looked up): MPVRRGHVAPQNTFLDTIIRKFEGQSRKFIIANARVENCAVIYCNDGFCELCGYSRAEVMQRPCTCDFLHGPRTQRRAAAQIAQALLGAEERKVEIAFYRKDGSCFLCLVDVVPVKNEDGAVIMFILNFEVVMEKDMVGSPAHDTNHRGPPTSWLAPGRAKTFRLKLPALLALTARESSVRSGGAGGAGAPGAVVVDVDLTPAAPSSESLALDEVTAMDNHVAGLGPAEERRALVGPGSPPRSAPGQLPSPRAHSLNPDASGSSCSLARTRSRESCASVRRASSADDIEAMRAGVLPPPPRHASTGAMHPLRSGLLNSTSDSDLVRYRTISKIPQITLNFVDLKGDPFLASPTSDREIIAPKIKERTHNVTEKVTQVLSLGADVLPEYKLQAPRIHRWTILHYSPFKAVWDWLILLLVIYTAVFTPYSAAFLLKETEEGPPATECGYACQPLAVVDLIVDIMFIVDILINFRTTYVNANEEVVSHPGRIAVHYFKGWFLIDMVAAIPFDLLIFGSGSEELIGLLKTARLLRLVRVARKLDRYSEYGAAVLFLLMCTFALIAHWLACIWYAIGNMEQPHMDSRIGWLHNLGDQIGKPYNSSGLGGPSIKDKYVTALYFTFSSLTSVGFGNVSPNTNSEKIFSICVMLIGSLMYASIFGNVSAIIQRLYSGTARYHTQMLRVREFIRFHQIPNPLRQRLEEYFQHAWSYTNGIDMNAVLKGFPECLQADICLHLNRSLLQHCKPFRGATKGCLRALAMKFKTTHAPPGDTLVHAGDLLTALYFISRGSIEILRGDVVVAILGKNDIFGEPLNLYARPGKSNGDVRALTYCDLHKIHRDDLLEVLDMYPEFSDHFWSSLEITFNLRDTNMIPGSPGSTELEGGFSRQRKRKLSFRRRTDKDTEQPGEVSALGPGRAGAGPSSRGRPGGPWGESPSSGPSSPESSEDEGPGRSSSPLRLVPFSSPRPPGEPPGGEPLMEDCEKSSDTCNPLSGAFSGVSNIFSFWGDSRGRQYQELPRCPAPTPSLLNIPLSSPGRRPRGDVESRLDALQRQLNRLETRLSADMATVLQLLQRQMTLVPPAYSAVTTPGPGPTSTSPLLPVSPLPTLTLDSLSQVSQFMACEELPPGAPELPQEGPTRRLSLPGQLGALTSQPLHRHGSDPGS

| Structure (SMILES) | hERG current change (%, negative = inhibition) at 10uM |
| --- | --- |
| CC(C)n1c(N2CCN(C(=O)N3CCCCC3)CC2)nc2ccccc21 | -15.8% |
| Clc1ccc(-c2cc(COc3ccccc3)no2)cc1Cl | -0.662% |
| O=C1CCC(C(=O)N2CCCCO2)CN1Cc1cccc(F)c1 (stereo not drawn) | 8.75% |
| Cc1ccc(-n2nc3c(Cl)nnc(C)c3c2C)cc1 | 1.43% |
| CCN(CC)CCCNc1nc2cc(OC)c(OC)cc2c2nc(-c3cccnc3)nn12 | -2.29% |
| Cc1ccccc1C(=O)Nc1cccc(NC(=O)Cn2cnc3c(=O)n(C)c(=O)n(C)c32)c1 | -21.1% |
| CC(=O)Nc1ccc(-c2nnc(SCC(=O)Nc3ccc4c(c3)oc3ccccc34)n2C)cc1 | 11.3% |
| O=c1c2ccccc2nc(-c2ccccc2)n1-n1cccc1 | 9.64% |
| Cc1cc(C)cc(NC2=C(N)C(=O)c3ccccc3C2=O)c1 | 13.7% |
| CC(NS(=O)(=O)CCNC(=O)c1ccccc1)c1ccccc1 (stereo not drawn) | 9.29% |
| COc1nc(N)c(C#N)c(-c2ccc(N(C)CCC#N)cc2)c1C#N | -14.1% |
| COC(=O)c1ccccc1NC(=O)COC(=O)/C=C/c1ccco1 | -0.27% |
| COc1ccc(Nc2nc(N)c([N+](=O)[O-])c(N3CCN(C)CC3)n2)cc1 | -26.6% |
| Cc1ccc(NC(=O)C2CCCN(C(=O)NCc3ccccc3)C2)c(C)c1 (stereo not drawn) | 12.2% |
| COc1cc(C(=O)NC(=S)Nc2ccc(N3CCCC3)cc2)cc(OC)c1OC | -2.18% |
| O=C(Cn1cc2c(n1)CCCC2)N1CCCc2ccccc21 | -18.5% |
| O=C(O)C1CCCN1S(=O)(=O)c1ccc(F)cc1 (stereo not drawn) | 26.9% |
| COc1c(Cl)cc(Cl)cc1C(=O)Nc1ccc(C(=O)O)cc1 | 26.9% |
| Cc1cccc(NC(=O)Cn2cc(C(=O)C3CC3)c3ccccc32)c1C | 10.7% |

| Structure (SMILES) | hERG current change (%, negative = inhibition) at 10uM |
| --- | --- |
| Oc1ccc(N=Nc2nc(-c3ccccc3)c(-c3ccccc3)[nH]2)cc1 | 19.8% |
| CCOC(=O)NC(=O)CSc1nc2ccccc2[nH]1 | 28.9% |
| Cc1cc2ccccc2nc1SCC(=O)N1c2ccccc2CC1C (stereo not drawn) | 8.01% |
| CCN(CC)S(=O)(=O)c1cccc(-c2nnc(-c3ccc(C)cc3)o2)c1 | 18.4% |
| CCOC(=O)c1cc(C(=O)NCc2ccc(Cl)cc2Cl)nn1C | -17% |
| NC(=O)CSc1nc(N)c2c3c(sc2n1)CCCCC3 | -30.5% |
| CCN(CC(=O)Nc1ccc(OC)cc1)C(=O)c1cc(S(=O)(=O)N(C)C)ccc1N1CCCC1 | -8.62% |
| CC(=O)Nc1ccc(/C(C)=N/NC(=O)c2ccc(F)cc2)cc1 | 4.2% |
| CC(OC(=O)CCCCCN=C1NS(=O)(=O)c2ccccc21)C(=O)Nc1cc(Cl)cc(Cl)c1 (stereo not drawn) | -34.2% |
| N#Cc1ccccc1NC(=O)CNc1ccccc1N1CCCCC1 | -14.7% |
| N=C1C(c2ccccc2)=C(O)CN1c1cccc(S(=O)(=O)Nc2cccc(C(F)(F)F)c2)c1 | 32.3% |
| CSc1ccc(CNCC(O)c2ccccc2)cc1.Cl (stereo not drawn) | -55% |
| CCOc1ccc(-c2cn(-c3ccc(OC)cc3)c(SC)n2)cc1 | -0.431% |
| CN(C)S(=O)(=O)c1ccc(N2CCCC2)c(C(=O)NCc2ccc(Cl)cc2)c1 | -68.5% |
| Cc1ccccc1-c1nc2cc(Cl)ccc2o1 | 8.3% |
| Cc1ccc2c(c1)N(C(=O)CSc1nncn1C)C(C)(C)c1ssc(=S)c1-2 | -21.7% |
| CC1=C(C)CC(C(=O)NCc2cccc(Cl)c2)C(C(=O)O)C1 (stereo not drawn) | 2.2% |
| O=C(Cn1cnc2scc(-c3ccccc3)c2c1=O)N1CCOCC1 | -11.9% |
| COCCNC(=O)c1nc2ccccc2s1 | -8.79% |

| Structure (SMILES) | hERG current change (%, negative = inhibition) at 10uM |
| --- | --- |
| CCCCS(=O)CC(COCc1ccccc1)OC(=O)CSc1nc(C)cc(C)n1 (stereo not drawn) | -40.5% |
| CCOC(=O)CCCNC(=O)CN1CCC(c2nc3ccccc3s2)CC1 | -46.8% |
| CCC(=O)Nc1ccccc1C(=O)N1CCCC1 | 7.25% |
| COc1ccc2c(c1)C(C)CC(C)(C)N2C(=O)NC1CCCCC1 (stereo not drawn) | 1.9% |
| COc1cc(/C=C(\C#N)C(=O)c2c(C)[nH]c3ccccc23)cc(OC)c1OC | 13.2% |
| Cc1ccc(S(=O)(=O)N2CCCCC2)cc1NC(=O)CSc1nnnn1C | -9.78% |
| Cc1ccc2[nH]c(=O)c(CNC(C)C)cc2c1 | -3.2% |
| CCOC(=O)C1CCN(C(=O)c2cn(C)c(=O)c3cc(OC)c(OC)cc23)CC1 | -11.3% |
| COc1ccc(OC)c2sc(NC(=O)CCS(=O)(=O)c3ccccc3)nc12 | 18.1% |
| CCOC(=O)COc1ccc(S(=O)(=O)NCc2cccnc2)cc1 | 5.13% |
| CC1(c2ccccc2)CC(C)(C)N(C(=O)c2cc([N+](=O)[O-])cc([N+](=O)[O-])c2)c2ccccc21 (stereo not drawn) | 26.9% |
| CC(C)(C)NC(=O)CN(Cc1cccnc1)C(=O)c1csnn1 | -4.81% |
| CCCCNC(=O)[C@H](Cc1c[nH]c2ccccc12)NC(=O)c1ccccc1Cl | -8.26% |
| COC(=O)C1SCCN1S(=O)(=O)c1ccc(Cl)cc1 (stereo not drawn) | -6.37% |
| CCCc1nc(SCC(=O)NCC2CCCO2)c2c(=O)n(C)c(=O)n(C)c2n1 (stereo not drawn) | 6.13% |
| O=C(Nc1ccc2nc3n(c(=O)c2c1)CCCC3)c1ccccc1[N+](=O)[O-] | 13.9% |
| N=c1ccccn1CC(O)COc1ccccc1 (stereo not drawn) | -3.09% |
| COc1ccc(C2CC(c3ccccc3)=NN2C(=O)COC(=O)C2(C)CC2(Cl)Cl)cc1 (stereo not drawn) | 17% |
| CCOc1ccc(CNc2ccc(S(N)(=O)=O)cc2)cc1 | -6.78% |
